The values below come from PubChem BioAssay AID488969 (Vanderbilt High Throughput Screening Facility, 2010).

In all, about 110,000 compounds were measured (“z-score”: median about -0.1, highest 2% from about 2 on). The list shows a part of the results. Calls of active or inactive are those of the source.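 Rule for the calls: active = z-score in the third read window above 3 or below -3; inactive = the rest.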

For this assay, the target named is Metabotropic glutamate receptor 8 (Rattus norvegicus) (UniProt P70579). Nature of the assay: rat mGluR8 modulators via GIRK flux, primary screen, cell-based, thallium flux, HTS (AID 488969). To be noted: HEK293 rat mGluR8, GIRK (G protein-gated inwardly rectifying potassium channel) thallium flux, FluoZin2; at 10 µM; stronger effect = higher value; submaximal glutamate (EC20) added with thallium.
Chain of UniProt P70579 (P70579 whole entry, looked up): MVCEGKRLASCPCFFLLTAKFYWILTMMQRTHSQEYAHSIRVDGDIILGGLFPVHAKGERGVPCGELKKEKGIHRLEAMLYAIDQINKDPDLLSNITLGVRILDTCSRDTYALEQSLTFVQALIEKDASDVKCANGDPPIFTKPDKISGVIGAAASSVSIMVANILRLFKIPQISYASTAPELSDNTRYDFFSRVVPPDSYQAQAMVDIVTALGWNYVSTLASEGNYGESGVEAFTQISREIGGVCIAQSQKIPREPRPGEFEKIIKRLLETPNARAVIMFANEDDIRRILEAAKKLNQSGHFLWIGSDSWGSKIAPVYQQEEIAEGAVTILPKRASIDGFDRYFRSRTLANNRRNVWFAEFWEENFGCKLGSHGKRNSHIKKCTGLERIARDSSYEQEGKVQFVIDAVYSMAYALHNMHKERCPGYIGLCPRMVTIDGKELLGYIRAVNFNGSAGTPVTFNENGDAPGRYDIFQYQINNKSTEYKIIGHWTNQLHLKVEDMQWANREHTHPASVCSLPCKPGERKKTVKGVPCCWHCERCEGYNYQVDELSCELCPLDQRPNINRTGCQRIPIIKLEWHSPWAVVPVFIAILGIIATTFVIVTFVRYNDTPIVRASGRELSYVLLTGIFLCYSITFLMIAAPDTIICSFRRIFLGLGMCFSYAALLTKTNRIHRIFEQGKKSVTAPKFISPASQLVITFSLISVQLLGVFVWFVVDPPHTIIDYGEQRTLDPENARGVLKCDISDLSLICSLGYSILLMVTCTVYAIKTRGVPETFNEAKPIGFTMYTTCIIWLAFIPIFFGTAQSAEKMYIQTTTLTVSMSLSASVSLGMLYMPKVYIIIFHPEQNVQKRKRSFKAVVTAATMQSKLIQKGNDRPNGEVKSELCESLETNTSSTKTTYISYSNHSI
For the molecule `Cc1cccc(NC(=O)c2ccc(S(=O)(=O)N(C)C)cc2)n1`, the z-score is -0.221.

Molecule `Cc1ccccc1OCC(=O)OCC(=O)c1ccc(OCc2ccccc2)cc1` showed a z-score of -0.23. Molecule `C=CCNC(=O)COC(=O)COc1ccc(Cl)cc1C` displayed a z-score of 0.482. In turn, `CC1=CC(=C(C#N)c2nc3ccccc3s2)C=C(C)N1c1ccc(F)cc1F` registered a z-score of 0.0247. To `O=C(NC(C(=O)N/N=C/c1c2ccccc2cc2ccccc12)c1n[nH]c(=O)c2ccccc12)c1ccccc1` (stereo not drawn) belongs -0.183.

The molecule `CCCSC1=N/C(=C\c2ccc3c(c2)OCO3)C(=O)S1` returned a z-score of -0.203. Molecule `Cc1cccc(N=C2NC(=O)/C(=C\c3cccs3)S2)c1` had a z-score of 0.692. Molecule `O=C(Nc1cnn(Cc2ccc(Cl)cc2)c1)c1ccc([N+](=O)[O-])cc1` registered a z-score of -1.03. In turn, `Cc1cc(Cl)ccc1NC(=O)C1CCCN1C(=O)c1cccs1` (stereo not drawn) had a z-score of 0.00203. `COc1ccc(NC(=O)CSc2c(C)nn(-c3nnc(C)c(=O)[nH]3)c2C)cc1` showed a z-score of 0.603. As to `CC(=O)NC(CCS(C)(=O)=O)C(=O)Nc1ccc2c(c1)OCCO2` (stereo not drawn), the z-score was -0.0282. As for `C=CCNC(=S)Nc1sc2c(c1C(=O)OCC)CC(C)(CC)OC2` (stereo not drawn), the z-score turned out to be 2.22.

Turning to `CN1CCc2nc(NC(=O)c3cccc(OC(F)F)c3)sc2C1`, the z-score was found to be 0.361. To `CCN(CC)CCNC(=O)Cn1cnc2sc(C)c(S(=O)(=O)N3CCOCC3)c2c1=O` belongs 0.572; to `O=C1C2C3C=CC(C3)C2C(=O)N1c1cccc(N2C(=O)C3C4C=CC(C4)C3C2=O)n1` (stereo not drawn), 0.232.

`CCn1cc(C(=O)NC(C)C2CC3CCC2C3)cn1` (stereo not drawn) came in with a z-score of 0.0567.

`O=C(c1ccccc1)[C@H]1[C@H](c2ccccc2)[C@@]2(N=C(c3ccccc3)OC2=O)C2c3ccccc3C=NN21` (stereo partly drawn) gave a z-score of 0.0137. Under `O=C(COC(=O)CCc1nc2ccccc2s1)Nc1ncc(Cl)cc1Cl` stands -0.33.

`CCn1c(C)nc2cc(C(=O)NNS(=O)(=O)c3ccc(C)cc3C)ccc21` had a z-score of 0.497. With `O=C(NCCN1CCCC1)C1COc2ccccc2O1` (stereo not drawn), the z-score was -0.161.

Regarding `N=c1c2c(-c3ccccc3)c(-c3ccccc3)n(Cc3ccccc3)c2ncn1CCCO`, the z-score was active: 4.35. Molecule `Cc1csc2nnc(N)n12` returned a z-score of -0.196. Molecule `O=C(Nc1nncs1)c1cccc(S(=O)(=O)N2CCCCC2)c1` had a z-score of 0.145. Under `COc1ccc(C(CCNCc2ccccc2F)c2ccc(F)cc2)cc1` (stereo not drawn) stands active: 3.61. `CCOC(=O)c1sc(C)c2c1NC(C)(c1ccccc1)NC2=O` (stereo not drawn): the z-score was -0.844. `Cc1cccc(-c2noc(-c3ccc(F)cc3)n2)c1` showed a z-score of -0.424. To `O=C(CN1CCc2ccccc21)Nc1ccc2c(c1)OCO2` belongs 1.09. Regarding `CCc1ccc2c(c1)C(c1ccc([N+](=O)[O-])cc1)=NNC(c1ccc(C)cc1)=N2`, the z-score is -0.102. As to `COc1ccc(CCNC(=O)c2c(C)noc2C)cc1`, the z-score is -0.303. Consider `CCC(=O)Nc1cccc(-c2cn3ccsc3n2)c1`, for which the z-score turned out to be 0.036. `COc1ccc(N2CCN(C(=O)CSc3nnc4c(C)cc5ccc(C)c(C)c5n34)CC2)cc1` came in with a z-score of 0.281.

Take `CC12CC3CC(C)(C1)CC(C(=O)NC(=S)N1CCOCC1)(C3)C2`: the z-score is active: 3.1. Regarding `COc1ccc(-c2nn(CCC(=O)O)cc2/C=C/C(=O)O)cc1[N+](=O)[O-]`, the z-score was -0.0549. In turn, `COc1ccc(CCNC(=S)NC(=O)/C=C/c2ccc(C)cc2)cc1OC` came in with a z-score of -0.0761. `Cc1ccccc1C(=O)N1CCN(c2ccccn2)CC1` displayed a z-score of 0.732. For `Cc1nnc(NC(=O)CSc2nc(C(C)C)nc3ccccc23)s1`, the z-score was -0.197. In turn, `O=C(N/N=C/c1ccc(O)cc1)/C(=C/c1ccc([N+](=O)[O-])cc1)NC(=O)c1ccccc1` displayed a z-score of -0.461. Under `CCSc1nc2cc(OC)c(OC)cc2c(=O)n1CCc1ccccc1` stands 0.194; under `Cc1nc(SCc2cccc(Oc3ccccc3)c2)n[nH]1`, 0.373; under `O=C(NCCOc1nc(N2CCOCC2)nc(N2CCOCC2)n1)Nc1ccccc1`, -0.0497. `Cc1nc(SCC(=O)c2ccc(Cl)s2)c2oc3ccccc3c2n1` had a z-score of -0.317. Molecule `CC(=O)Oc1ccc2c(c1)cc(C)n2C` registered a z-score of 0.458. To `c1ccc(CCc2nn3c(Cc4ccccc4)nnc3s2)cc1` belongs -1.08; to `O=C(COCC(=O)N/N=C/c1ccccc1F)N/N=C/c1ccccc1F`, -0.201; to `COc1ccccc1CNC(=O)CCc1nc2ccccc2c(=O)[nH]1`, -0.227. `O=C1c2ccccc2C(=O)N1CCOCCN1C(=O)c2ccccc2C1=O` gave a z-score of -1.37. Under `COC(=O)c1cc(OC)c(OC)cc1NC(=S)N1CCCC(CO)C1` (stereo not drawn) stands -0.107; under `COC(=O)c1c(C)oc2ccc(N(C(=O)Oc3ccccc3)S(=O)(=O)c3ccccc3)cc12`, -0.0489.

Take `C=CCOC(=O)C1=C(C)OC(N)=C(C#N)C1c1ccc2c(c1)OCO2` (stereo not drawn): the z-score is -0.255. For `COc1ccc(NC(=O)N2CCOCC2)cc1OC`, the z-score is 0.282. For `O=C(CSc1nnc(-c2ccco2)n1-c1ccccc1)NCc1ccc2c(c1)OCO2`, the z-score was -0.461. The molecule `CC(C)OC(=O)CC12CN(C)CC(CC(=O)OC(C)C)(CN(C)C1)C2=O` registered a z-score of 0.458. In turn, `CCCCCCC(=O)N1CCN(c2cc3c(cc2F)c(=O)c(C(=O)O)cn3CC)CC1` returned a z-score of -0.065.

The molecule `CCOC(=O)C1CCN(C(=O)c2cc(OCC)c(OCC)c(OCC)c2)CC1` returned a z-score of 0.856. To `O=C(NCc1ccco1)c1sc(=S)n2c1[nH]c(=O)c1ccccc12` belongs 2.75; to `Cc1cc(NC(=O)COC(=O)C(Nc2ccc(C(F)(F)F)cc2Cl)C(C)C)no1` (stereo not drawn), 1.68; to `Cc1ccccc1OCCNC(=O)CSc1ccc(C(F)(F)F)cc1[N+](=O)[O-]`, -0.304. `CCOC(=O)C1CCN(C(=O)c2ccc(NC(=O)C3CCCO3)cc2)CC1` (stereo not drawn) had a z-score of -0.0783.

`CN1CCN(CC#CCC(O)(c2ccccc2)C2CCCC2)CC1` (stereo not drawn) registered a z-score of 0.354. `CCOc1ccc2[nH]cc(S(=O)(=O)c3ccc(F)cc3)c(=O)c2c1`: the z-score is -0.159. `O=C(O)c1ccc2c(c1)OCCO2` came in with a z-score of -0.253. `CSc1nnc(COc2ccc(C)cc2)n1N` gave a z-score of 0.285.

Take `CCn1c(CNC(=O)C23CC4CC(CC(C4)C2)C3)nnc1SCC(=O)Nc1nnc(C)s1`: the z-score is -1.09. Turning to `Cc1cccc2c1N(C(=O)c1ccco1)C(C)(C)c1ssc(=S)c1-2`, the z-score is -0.171. On to `COc1ccc2cc3c(N)nn(C(=O)c4ccccc4[N+](=O)[O-])c3nc2c1`, for which the z-score worked out at 0.426.

As to `Cc1ccc2c(c1)c1c(n2CC(O)Cn2c(C)nc3ccccc32)/C(=N\O)CCC1` (stereo not drawn), the z-score is -0.101. `Cc1ccc(CNC(=O)COc2ccc(C(=O)c3ccc(F)cc3)cc2)cc1`: the z-score was -0.0652. The molecule `CN1CCC(N(C)C(=O)CCc2nc3ccccc3c(=O)[nH]2)CC1` displayed a z-score of -0.206.
